Data as given in the RNAGym collection of RNA variant scans (doi:10.7554/elife.90254).
The source gives no read counts; variants with many changes may rest on few reads.

B1: LINE1-mini (parent)
chain: GGCAGAGCUCAACACAGCGUGGCAAAGUGGCUGUGGCUAGACUGCC

Variants of: B1
Assay: self-cleavage, relative activity (ratio to wild type); higher = more cleavage; in vitro, sequencing; the parent is a self-cleaving ribozyme

Variant	self-cleavage
GGCAUAGCUCAACAAAGCGUGGCAAAGUGGCUGUGUCUAGACUUCC [G5U C15A G36U G44U]	0.05
GGCAUAGCUCAACACAGAGAGGCAAAGUGGCUGUGGCUAGACUGCC [G5U C18A U20A]	0.03
GGCAUAGCUCAACAUAGAGUGGCAAAGUGGCUGUGGUUAGACUGCC [G5U C15U C18A C37U]	0.02
GGCAUAACUCAAAACAGGGUGGCAAAGUGGCUGUGGCUAGACUGCG [G5U G7A C13A C18G C46G]	0.02
GGCAUAGCUCAACAGAGCGUGGCCAAGUGGCUGUGGGUAGACUGCC [G5U C15G A24C C37G]	0.02
GGCAUAGCUCAACACAGCGUGGUAAACUGGCUGUGGCUAGACUGCC [G5U C23U G27C]	0.07
GGCAUAGCUCAAUACAGCGUUGCAAAGUGGCUGUGGCUAGACUGCC [G5U C13U G21U]	0.15
GGCAUAGCUCAAAAGAGCGUGGCAAAGUGGCUGCGGCUAGACUGCC [G5U C13A C15G U34C]	0.05
GGCAUAGCUGAACACAGCGUGGCAAAGUGGCUGCGGCUAGACUGCG [G5U C10G U34C C46G]	0.01
GGCAUAGCUCAAGACAGCGUGGCAAAGUGCCUGUGGCUACAAUGCC [G5U C13G G30C G40C C42A]	0.08
GGCAUAGCUCAACACAGCGUGGCAAAGUGGUUGUGCCUAGACUGCC [G5U C31U G36C]	0.03
GGCAUAACUCAAUACACCGUUGCACAGUGGCUGUGGCUAGACUGCC [G5U G7A C13U G17C G21U A25C]	0.17
GGCAUAACUCAACACAGCGUGGCAAAGUCGCUGUGGCUAGACUGCC [G5U G7A G29C]	0.12
GGCAUAGCUCAAAACAGCGUGGCAAAGUUGCUGUGGCUUGAGUGCC [G5U C13A G29U A39U C42G]	0.01
GGCAUAGCUCAAUACAGCGUGACAAAAUGGCUGUGUCUCGAAUGCC [G5U C13U G22A G27A G36U A39C C42A]	0.03
GGCAUAGCUCAAAACAGCGUGGAAAAGUAGCUGUGGCUAGACUGCU [G5U C13A C23A G29A C46U]	0.11
GGCAUAGCUGAACACAGCGUUGCAAAGUGGCUGUGGCUAGAAUGCC [G5U C10G G21U C42A]	0.02
GGCAUAGCUCAACACAGCGUGGAAAAGUGGCUGCGGCUAGACUGAC [G5U C23A U34C C45A]	0.12
GGCAUACCUCAACACAGCGUGGCAAUUUGGCUGUGGCUAGACUGCC [G5U G7C A26U G27U]	0.01

Variant	self-cleavage
GGCAUAGCUCAACAUAGCGUAGCAAAGUGGCUGUGGCUAUACUGCC [G5U C15U G21A G40U]	0.22
GGCAUAGCUCAACAUAGCGUAGCAACGUGGCCGUGGCUAAACUGCC [G5U C15U G21A A26C U32C G40A]	0.02
GGCAUAGCUCAACACAGAGUGGCAAAGUGGUUGUAGCUAGAUUGCC [G5U C18A C31U G35A C42U]	0.02
GGCAUAGCUCAAGACAGCGUGGCAAAGAUGCUGUGGCUAUACUGCC [G5U C13G U28A G29U G40U]	0.05
GGCAUAGCUGAAAACAGCGUGGCAAAGUGGCUGUGGAUAGACUGCC [G5U C10G C13A C37A]	0.01
GGCAUAGCUUAACACAGCCUGGCAAAGGGACUGUGGCUAGACUGCC [G5U C10U G19C U28G G30A]	0.02
GGCAUAGCUCAACACAGCGUGGCAAAGUGGAUAUGGCUAGACUGCA [G5U C31A G33A C46A]	0.05
GGCAUAGCUCAACAAAGCGUGGAAAAGUGGCUGUGGCUAGACUGCC [G5U C15A C23A]	0.09
GGCAUAGCUCAACAUAGCGUGGCAAAGUGGCUGUGGCAAGACUGCC [G5U C15U U38A]	0.1
GGCAUAGCUCAACAGAACGUGCCAAAGUGGCUGUGGCUAGUUUGCC [G5U C15G G17A G22C A41U C42U]	0.03
GGCAUAGCUCAACACAGCGUGGGAAAGUGGCUGUUGAUAGACUGCC [G5U C23G G35U C37A]	0.05
GGCAUAGCUUAACACAGCGUGGCAAAGUGGCUGUGGCUCGACUGCG [G5U C10U A39C C46G]	0.01
GGCAUACCUCAAUACAGCGCGGGAAAGUGGCUGUCGCUAGACUGCC [G5U G7C C13U U20C C23G G35C]	0.14
GGCAUAGCUCAACACAGCGUGGCAAAGUGGCUGUGGCUAGAAUGAC [G5U C42A C45A]	0.25
GGCAUAGCUCAACACAGCGUGGCAAAGUGGCUGUGGCUAGAUUCCU [G5U C42U G44C C46U]	0
GGCAUAGCUUAACACAGCGUGGCAAACUGGCUGUGGCUAGACUGCC [G5U C10U G27C]	0.04
GGCAUAGCUCAAAACAGCGUGUCAAAGUGGCUGUGUCUGGACUGCC [G5U C13A G22U G36U A39G]	0.03
GGCAUAGCUCAAAACAGCGUGGCAACGUGGCUGUGGCUAGACUGCC [G5U C13A A26C]	0.06
GGCAUAGCUCAAUACAGCGUGGCAUAGUGGUUGUGGCUAGACUCCC [G5U C13U A25U C31U G44C]	0.07

Variant	self-cleavage
GGCAUAGCUCAACAAAGCGUGGCAAAGUGGCUGUGGCUAGGCGGCC [G5U C15A A41G U43G]	0.09
GGCAUAGCUCAACACAGAGUGGCAAAGUGGCUGUGGAUAGACUGCC [G5U C18A C37A]	0.03
GGCAUAGCUCAACACAGUGUGGCAAAGUGGCUUUGGCUAGACUGCC [G5U C18U G33U]	0.03
GGCAUAGCUCAACAUAGAGUGGCAAAGCGGCUGUGGCUACACUGCC [G5U C15U C18A U28C G40C]	0.08
GGCAUAGCUCAAUACAGCCUGGCAUAGUGGCUGUGGCUAGACUGCC [G5U C13U G19C A25U]	0.07
GGCAUAGCUCAACACAGCGUGGAGAAGUUGCUGUGGCUAGACUGCC [G5U C23A A24G G29U]	0.01
GGCAUAGCUUAACAAAGCGUGGCAAAGUAGCCGUGGCUAGACGGCC [G5U C10U C15A G29A U32C U43G]	0.01
GGCAUAGCUCAAUACAGCGUGGCAAAGUGGCUGUGGCUAGACUGCA [G5U C13U C46A]	0.18
GGCAUAGCUCAAAACCGCGUGGAAAAGUGGCUGUGGCUAGAAUGCC [G5U C13A A16C C23A C42A]	0.02
GGCAUAGCUCAACACAGCGUGGAAAAGUCGAUGUGGGUAUACUGUC [G5U C23A G29C C31A C37G G40U C45U]	0.02
GGCAUAGCUCAACACAGCGUGGCAAAGUGGUUGUGGCUAGAUUACC [G5U C31U C42U G44A]	0.02
GGCAUAGCUCAACACAGCGUGGGAAAGUCGCUGUGGCUAGACUGCC [G5U C23G G29C]	0.03
GGCAUAGCUCAACAUAUCGUGGCAAAGUGGCUGUGACUAGCCUGCC [G5U C15U G17U G36A A41C]	0.05
GGCAUAGCUCAACACAGCGUGGCAAAGUGGGUGUGGCGAUACUGCC [G5U C31G U38G G40U]	0.01
GGCAUAACUCAAGACAGCGUGGCAAAGUGGCUGUGACUAGACUGCG [G5U G7A C13G G36A C46G]	0.51
GGCAUAGCUUAACACAGCGUGGCAAAGUGGCUGUGGAUAGAAUGCC [G5U C10U C37A C42A]	0
GGCAUACCUCAAUACAGCGUGGCAAAGUGGCUGUGGCUAGACUGCC [G5U G7C C13U]	0.37
GGCAUAGCUCAAUAUAGCGUGGCAAAGUGGCUGUGGCUAGACUGCC [G5U C13U C15U]	0.17
